Reference: PubChem BioAssay AID1508642 (National Center for Advancing Translational Sciences (NCATS), 2021)
The whole screen tested about 43,000 compounds, of which about 200 (0.47%) were called active. Inconclusive means that the source gave no clear call. Such entries were picked first, then a sample of the others. Calls follow the shape of the dose curve; as a rule, active = well fitted cell-killing curve with a large enough effect; inconclusive = small, poorly fitted or top-dose-only effect, or effect the other way; inactive = flat fitted curve, though single readings scatter. Where the call is inconclusive, the potency comes from a doubtful curve fit.

Experiment: Cell viability qHTS assay in S16 Pmp22-F2sN cells; also: nearly all actives have a fitted effect of over 65% in size
Conditions: S16 Pmp22-F2sN Schwann cells (luciferase reporters placed in the Pmp22 gene) viability, CellTiter-Glo, 24 h; series mostly up to 57.5 µM
Excerpt: Assay Provider: Jim Inglese Ph.D. National Center for Advancing Translational Science, National Institutes of Health, Rockville, MD CMT is a heterogeneous group of neurological disorders that affect approximately 1 in 2,500 people. In particular, the most common form of CMT, CMT1A is genetically linked to the duplication of the PMP22 gene which leads to Schwann cell overexpression, thus manifesting itself as a typical case of dose-sensitive diseases. To identify small molecule compounds that can mediate the expression of PMP22 we developed a phenotypic assay screening strategy by utilizing genome editing techniques to construct Schwann cell lines containing novel reporter technology to monitor the transcriptional or translational regulation of PMP22. For high sensitivity we use a bioluminescent reporter system embedded in the 3' UTR of the PMP22 gene (S16(c9) Pmp22-F2sN) to identify compounds that inhibit gene expression. […] We can further discriminate the effect of all transcriptionally active molecules on PMP22 translation or stability with an assay that incorporates a short NLuc peptide (HiBiT) at the C-terminus of expressed PMP22 (S16(f8) PMP22-HiBiT) allowing alpha complementation and luminescence detection of membrane-associated PMP22 protein. These assays were screened against the NCATS Sytravon Library Collection. Miniaturization of these assays to 1536-well plate format for quantitative high throughput screening (qHTS) yielded rich data sets immediately from the qHTS assay (S16(c9) Pmp22-F2sN), when compared with data from a cell viability assay (Cell TiterGlo) to identify compounds that decreased the output signals through cellular toxicity to streamline the selection process of actives for subsequent characterization using the HiBiT assay (S16(f8) PMP22-HiBiT).
Cell viability assay in S16 Pmp22-F2sN cells PROTOCOL TABLE (format as described by Inglese J, Shamu CE and Guy RK. 2007) SEQUENCE No. (e.g., 1, 2, 3, etc.); […] (e.g., Cells, Incubation, Reagent, etc.); VALUE and DESCRIPTION. 1. Cells. Add 500-1,000 cells in 4 uL in growth media (DMEM High Glucose, No Phenol Red media + 10% heat-inactivated FBS + 1% Pen/Strep supplemented media) per well into Greiner 1536-well white/solid bottom high base, TC-treated plates. 2. Compounds. Library compounds and controls added at 23nL per well, transferred by Pin Tool. 3. Incubation. Incubate plates at 37C, 5% CO2, 95% RH for 24 h. 4. Reagent. Add 3uL CellTiter-Glo per well of Greiner 1536-well plates. 5. Incubation. Incubate plates at room temperature for 15 min., protect from light. 6. Detector. FLuc luminescence measured using CCD-based camera (Viewlux). NOTES (numbers refer to Sequence numbers above; values are from representative experiments) 6. Luminescence Read: Clear filter; Exposure = 1 sec, Gain = High, Speed = Slow, Binning = 2X REFERENCES: 1. Inglese J, Shamu CE and Guy RK, Reporting data from high throughput screening of small molecule libraries, Nature Chemical Biology, 2007, 3(8): 438-441. doi.org/10.1038/nchembio0807-438 2. Yasgar A, Shinn P, Jadhav A, Auld DS, Michael S, Zheng W, Austin CP, Inglese J and Simeonov A, Compound Management for Quantitative High-Throughput Screening. J. Assoc. Lab. Auto., 2008, 13: 79-89. doi: 10.1016/j.jala.2007.12.004
Potency is read from the fitted curve at half-maximal effect; tags tell the direction and shape of the fitted curve.

SMILES | Potency
Cc1ccc(-c2onc(C)c2C)cc1S(=O)(=O)N1CCCCC1 | inconclusive: 39.8 µM [cytotoxic, partial curve, poor fit]
COc1cc(OC)cc(C(=O)Nc2cc3nn(-c4ccccc4)nc3cc2Cl)c1 | inconclusive: 39.8 µM [cytotoxic, single point]
O=C(NCc1ccc2c(c1)CCN2C(=O)c1ccc(F)cc1)c1ccc(Br)o1 | inconclusive: 3.55 µM [cytotoxic, full curve]
COc1ccccc1NC(=O)C1=C(C)Nc2c(C(=O)Nc3ccc(F)cc3)cnn2C1c1ccc(Cl)cc1 (stereo unspecified) | inconclusive: 31.6 µM [cytotoxic, single point]
CCOc1ccc(-c2oc3ccccc3c(=O)c2O)cc1OCC | inconclusive: 39.8 µM [cytotoxic, single point]
CCCS(=O)(=O)c1ncc(Cl)c(C(=O)N(Cc2ccccc2)Cc2ccco2)n1 | active: 2.24 µM
COc1ccc(CSc2nc3ncccc3[nH]2)cc1 | inactive
Cc1ccc(-n2nnc3c(sc4nc(C)c(C)cc43)c2=O)cc1Cl | inconclusive: 31.6 µM [rising, partial curve, poor fit]
CCOc1ccc(Cn2c(=O)oc3ccccc32)cc1 | inactive
CCOc1ccc(CC(=O)Nc2ccc3nc(N4CCCCC4)cc(C)c3c2)cc1OCC | inconclusive: 35.5 µM [cytotoxic, single point]
CC(C)NC(=O)Nc1ccc2c(c1)N(C)C(=O)c1ccccc1S2 | inactive
COc1ccc(NC(=O)C2=CC(c3cccs3)=NS(=O)(=O)N2C)cc1 | inconclusive: 31.6 µM [cytotoxic, partial curve, poor fit]
Cc1ccc(NC(=O)CN2C(=O)CCSc3ccc(S(=O)(=O)N4CCCC4)cc32)cc1 | inconclusive: 12.6 µM [cytotoxic, partial curve, poor fit]
CCc1ccc(-c2nc(CSCC(=O)NCc3ccccc3OC)c(C)o2)cc1 | inconclusive: 39.8 µM [cytotoxic, partial curve, poor fit]
O=C(Nc1cc(F)ccc1F)C1CCN(c2nc3ccccc3n3cccc23)CC1 | inactive
Cc1sc2c(c1C)c(=O)n(CCc1ccccc1)c(=O)n2Cc1cccc(F)c1 | inconclusive: 14.1 µM [cytotoxic, partial curve, poor fit]

SMILES | Potency
COc1ccc2oc(=O)cc(CN3CCN(c4ccc(F)cc4)CC3)c2c1 | inconclusive: 39.8 µM [cytotoxic, partial curve, poor fit]
Cc1cc(C)cc(Nc2cc(-c3ccccc3)nc(C)n2)c1 | inconclusive: 39.8 µM [cytotoxic, single point]
Cc1cc(OCC(=O)NCC2(N3CCN(C)CC3)CCCCC2)cc(C)c1Cl | inconclusive: 39.8 µM [cytotoxic, single point]
Cc1ccc(-n2nc3c(N4CCC(C(=O)N5CCCCC5)CC4)nnc(C)c3c2C)cc1 | inconclusive: 39.8 µM [cytotoxic, single point]
CCOc1ccc(OCC)c(NC(=O)C2CCN(S(=O)(=O)c3c(C)noc3/C=C/c3ccccc3F)CC2)c1 | inconclusive: 0.0398 µM [rising, full curve, poor fit]
O=C(c1ccc2c(c1)OCCO2)N(Cc1cccnc1)c1nc2c(Cl)cccc2s1 | inactive
Cc1cc(C)cc(NC(=O)N2CCC3(CC2)Oc2ccccc2C(=O)N3Cc2ccccc2F)c1 | inconclusive: 0.224 µM [cytotoxic, full curve, poor fit]
COc1ccc(-c2nnc(SCC(=O)Nc3cccc(C(F)(F)F)c3)nc2-c2ccc(OC)cc2)cc1 | inconclusive: 8.91 µM [cytotoxic, partial curve, poor fit]
COc1ccc(CCn2c(=O)c3cccnc3n(CC(=O)Nc3ccc(C)c(F)c3)c2=O)cc1OC | inconclusive: 39.8 µM [cytotoxic, single point]
Cc1c(Cl)cccc1NC(=O)CSc1ncc2c(n1)-c1ccccc1N(C)S2(=O)=O | inactive
CN(CCCNC(=O)c1cc2c(Cl)nc3ccccc3c2s1)Cc1ccccc1 | inconclusive: 39.8 µM [cytotoxic, single point]
COc1ccc(CCNC(=O)c2ccc(Nc3nc4ccccc4n4nnnc34)cc2)cc1OC | inconclusive: 2 µM [cytotoxic, full curve]
COc1ccc(NC(=O)CSc2nc3c([nH]c4ccccc43)c(=O)n2-c2ccccc2)c(OC)c1 | inconclusive: 39.8 µM [cytotoxic, partial curve, poor fit]
COc1ccccc1CNC(=O)CCc1c(C)nn(-c2ccc(N3CCOCC3)nn2)c1C | inactive
CCN(CC)S(=O)(=O)c1ccc(NC(=O)NCc2noc3ccc(C)cc23)cc1 | inconclusive: 39.8 µM [cytotoxic, single point]
